Results published in patent US20140056895 (published 2014).
Like-named read-outs stand apart in the source and are kept apart here.

Tests used:
Test in all cases: SPR
HER2 [1] = target: T1, HER2 (human, UniProt P04626)
HER2 [2] = target: T1, HER2; remark: listed apart in the source
HER2 [3] = target: T1, HER2; remark: listed apart in the source

Row | Binder | Kd (HER2 [1]) [nM] | Kd (HER2 [2]) [nM] | Kd (HER2 [3]) [nM]
1 | CODV-Ig 301/417 HC10/LC10, HER2 arm (antibody) chain 1: EVQLVQSGAEVKKPGSSVKVSCKASGGTFSSYAISWVRQAPGQGLEWMGGIIPIFGTANYAQKFQGRVTITADKSTSTAYMELSSLRSEDTAVYYCARAPLRFLEWSTQDHYYYYYMDVWGKGTTVTVSSG[letters of about 450 residues with a human IgG1 Fc not shown] chain 2: [letters of about 100 residues not shown]GGGGGGGSSELTQDPAVSVALGQTVRITCQGDSLRSYYATWYQQKPGQAPILVIYGENKRPSGIPDRFSGSSSGNTASLTITGAQAEDEADYYCKSRDGSGQHLVFGGGTKLTVLGGGGGRTVAAPSVFIFPPSDEQLKSGTASVVCLLNNFYPREAKVQWKVDNALQSGNSQESVTEQDSKDSTYSLSSTLTLSKADYEKHKVYACEVTHQGLSSPVTKSFNRGEC | 0.163 | 0.153 | 0.041
2 | CODV-Ig 302/416 HC11/LC11, HER2 arm (antibody) chain 1: [letters of about 120 residues not shown]GEVQLVQSGAEVKKPGSSVKVSCKASGGTFSSYAISWVRQAPGQGLEWMGGIIPIFGTANYAQKFQGRVTITADKSTSTAYMELSSLRSEDTAVYYCARAPLRFLEWSTQDHYYYYYMDVWGKGTTVTVSSGG[letters of human IgG1 constant region not shown] chain 2: SSELTQDPAVSVALGQTVRITCQGDSLRSYYATWYQQKPGQAPILVIYGENKRPSGIPDRFSGSSSGNTASLTITGAQAEDEADYYCKSRDGSGQHLVFGGGTKLTVLGGGGGGG[letters of about 100 residues not shown][letters of about 120 residues not shown] |  | 0.163 | 0.163
3 | CODV-Fab 418, HER2 arm (antibody) chain 1: [letters of about 120 residues not shown]GEVQLVQSGAEVKKPGSSVKVSCKASGGTFSSYAISWVRQAPGQGLEWMGGIIPIFGTANYAQKFQGRVTITADKSTSTAYMELSSLRSEDTAVYYCARAPLRFLEWSTQDHYYYYYMDVWGKGTTVTVSSGG[letters of human IgG1 constant region not shown] chain 2: SSELTQDPAVSVALGQTVRITCQGDSLRSYYATWYQQKPGQAPILVIYGENKRPSGIPDRFSGSSSGNTASLTITGAQAEDEADYYCKSRDGSGQHLVFGGGTKLTVLGGGGGGG[letters of about 100 residues not shown][letters of about 120 residues not shown] |  |  | 0.19
